# Measurements from the supplement of paper PMC8728848.
# This is one part of the list.
# B1: F17aG (Escherichia coli), Q99003 (protein)
# chain: MTNFYKVFLAVFILVCCNISQAAVSFIGSTENDVGPSLGSYSRTHAMDNLPFVYDTRNKIGYQNANVWHISKGFCVGLDGKVDLPVVGSLDGQSIYGLTEEVGLLIWMGDTKYSRGTAMSGNSWENVFSGWCVGANTASTQGLSVRVTPVILKRNSSARYSVQKTSIGSIRMRPYNGSSAGSVQTTVNFSLNPFTLNDTVTSCRLLTPSAVNVSLAAISAGQLPSSGDEVVAGTTSLKLQCDAGVTVWATLTDATTPSNRSDILTLTGASTATGVGLRIYKNTDSTPLKFGPDSPVKGNENQWQLSTGTETSPSVRLYVKYVNTGEGINPGTVNGISTFTFSYQ
# Tests used:
# Assay in all cases: glycan array binding signal (z-score within array); higher = stronger binding
# Conditions in all cases: glycan notation: IUPAC condensed, linker removed
# Gal(b1-4)Gal = molecular target: Gal(b1-4)Gal
# Procedure, shortened: (§1)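 The binding signal is a Z-score computed within each array. Data were drawn from 3228 arrays in the Consortium for Functional Glycomics database, restricted to those with a known protein sequence. Scores were averaged over arrays of the same protein sequence at different concentrations or buffers, and over linkers, and negative values can be taken as non-binding.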
# [1] = molecular target: Gal(b1-4)GalNAc(a1-3)[Fuc(a1-2)]Gal(b1-4)GlcNAc
# Procedure, shortened: as §1
# [2] = molecular target: Gal(b1-4)GalNAc(b1-3)[Fuc(a1-2)]Gal(b1-4)GlcNAc
# Procedure, shortened: as §1
# Gal(b1-4)Glc = molecular target: Gal(b1-4)Glc
# Procedure, shortened: as §1
# Gal(b1-4)Glc6S = molecular target: Gal(b1-4)Glc6S
# Procedure, shortened: as §1
# Gal(b1-4)GlcNAc = molecular target: Gal(b1-4)GlcNAc
# Procedure, shortened: as §1
# [3] = molecular target: Gal(b1-4)GlcNAc(a1-6)Gal(b1-4)GlcNAc
# Procedure, shortened: as §1
# Gal(b1-4)GlcNAc(b1-2)Man = molecular target: Gal(b1-4)GlcNAc(b1-2)Man
# Procedure, shortened: as §1
# [4] = molecular target: Gal(b1-4)GlcNAc(b1-2)Man(a1-3)Man(b1-4)GlcNAc(b1-4)GlcNAc
# Procedure, shortened: as §1
# [5] = molecular target: Gal(b1-4)GlcNAc(b1-2)Man(a1-3)[Gal(b1-4)GlcNAc(b1-2)Man(a1-6)]Man(b1-4)GlcNAc(b1-4)GlcNAc
# Procedure, shortened: as §1
# [6] = molecular target: Gal(b1-4)GlcNAc(b1-2)Man(a1-3)[Gal(b1-4)GlcNAc(b1-2)Man(a1-6)]Man(b1-4)GlcNAc(b1-4)[Fuc(a1-6)]GlcNAc
# Procedure, shortened: as §1
# [7] = molecular target: Gal(b1-4)GlcNAc(b1-2)Man(a1-3)[Gal(b1-4)GlcNAc(b1-2)][GlcNAc(b1-4)]Man(b1-4)GlcNAc(b1-4)GlcNAc
# Procedure, shortened: as §1
# [8] = molecular target: Gal(b1-4)GlcNAc(b1-2)Man(a1-3)[GlcNAc(b1-2)Man(a1-6)]Man(b1-4)GlcNAc(b1-4)GlcNAc
# Procedure, shortened: as §1
# [9] = molecular target: Gal(b1-4)GlcNAc(b1-2)Man(a1-3)[Man(a1-6)]Man(b1-4)GlcNAc(b1-4)GlcNAc
# Procedure, shortened: as §1
# [10] = molecular target: Gal(b1-4)GlcNAc(b1-2)Man(a1-6)Man(b1-4)GlcNAc(b1-4)GlcNAc
# Procedure, shortened: as §1
# [11] = molecular target: Gal(b1-4)GlcNAc(b1-2)Man(a1-6)[GlcNAc(b1-2)Man(a1-3)]Man(b1-4)GlcNAc(b1-4)GlcNAc
# Procedure, shortened: as §1
# [12] = molecular target: Gal(b1-4)GlcNAc(b1-2)Man(a1-6)[Man(a1-3)]Man(b1-4)GlcNAc(b1-4)GlcNAc
# Procedure, shortened: as §1
# [13] = molecular target: Gal(b1-4)GlcNAc(b1-2)[Gal(b1-4)GlcNAc(b1-4)]Man(a1-3)[Gal(b1-4)GlcNAc(b1-2)Man(a1-6)]Man(b1-4)GlcNAc(b1-4)GlcNAc
# Procedure, shortened: as §1
# [14] = molecular target: Gal(b1-4)GlcNAc(b1-2)[Gal(b1-4)GlcNAc(b1-4)]Man(a1-3)[Gal(b1-4)GlcNAc(b1-2)[Gal(b1-4)GlcNAc(b1-6)]Man(a1-6)]Man(b1-4)GlcNAc(b1-4)GlcNAc
# Procedure, shortened: as §1
# [15] = molecular target: Gal(b1-4)GlcNAc(b1-2)[Gal(b1-4)GlcNAc(b1-4)]Man(a1-3)[GlcNAc(b1-4)][Gal(b1-4)GlcNAc(b1-2)Man(a1-6)]Man(b1-4)GlcNAc(b1-4)GlcNAc
# Procedure, shortened: as §1
# [16] = molecular target: Gal(b1-4)GlcNAc(b1-2)[Gal(b1-4)GlcNAc(b1-4)]Man(a1-3)[GlcNAc(b1-4)][Gal(b1-4)GlcNAc(b1-2)[Gal(b1-4)GlcNAc(b1-6)]Man(a1-6)]Man(b1-4)GlcNAc(b1-4)GlcNAc
# Procedure, shortened: as §1
# [17] = molecular target: Gal(b1-4)GlcNAc(b1-2)[Gal(b1-4)GlcNAc(b1-6)]Man(a1-6)[Gal(b1-4)GlcNAc(b1-2)Man(a1-3)]Man(b1-4)GlcNAc(b1-4)GlcNAc
# Procedure, shortened: as §1
# [18] = molecular target: Gal(b1-4)GlcNAc(b1-2)[Gal(b1-4)GlcNAc(b1-6)]Man(a1-6)[GlcNAc(b1-4)][Gal(b1-4)GlcNAc(b1-2)Man(a1-3)]Man(b1-4)GlcNAc(b1-4)GlcNAc
# Procedure, shortened: as §1
# [19] = molecular target: Gal(b1-4)GlcNAc(b1-3)Gal(b1-3)GlcNAc
# Procedure, shortened: as §1
# [20] = molecular target: Gal(b1-4)GlcNAc(b1-3)Gal(b1-4)Glc
# Procedure, shortened: as §1
# [21] = molecular target: Gal(b1-4)GlcNAc(b1-3)Gal(b1-4)GlcNAc
# Procedure, shortened: as §1
# [22] = molecular target: Gal(b1-4)GlcNAc(b1-3)Gal(b1-4)GlcNAc(b1-3)Gal(b1-4)GlcNAc
# Procedure, shortened: as §1
# [23] = molecular target: Gal(b1-4)GlcNAc(b1-3)Gal(b1-4)[Fuc(a1-3)GlcNAc(b1-6)]Gal(b1-4)Glc
# Procedure, shortened: as §1
# [24] = molecular target: Gal(b1-4)GlcNAc(b1-3)Gal(b1-4)[Fuc(a1-3)]GlcNAc(b1-3)Gal(b1-4)[Fuc(a1-3)]GlcNAc
# Procedure, shortened: as §1
# [25] = molecular target: Gal(b1-4)GlcNAc(b1-3)GalNAc
# Procedure, shortened: as §1
# [26] = molecular target: Gal(b1-4)GlcNAc(b1-3)[Gal(b1-4)GlcNAc(b1-6)]Gal(b1-4)GlcNAc
# Procedure, shortened: as §1
# [27] = molecular target: Gal(b1-4)GlcNAc(b1-3)[Gal(b1-4)GlcNAc(b1-6)]GalNAc
# Procedure, shortened: as §1
# [28] = molecular target: Gal(b1-4)GlcNAc(b1-3)[GlcNAc(b1-6)]Gal(b1-4)GlcNAc
# Procedure, shortened: as §1
# [29] = molecular target: Gal(b1-4)GlcNAc(b1-6)Gal(b1-4)GlcNAc
# Procedure, shortened: as §1
# [30] = molecular target: Gal(b1-4)GlcNAc(b1-6)Gal(b1-4)GlcNAc(b1-6)GalNAc
# Procedure, shortened: as §1
# [31] = molecular target: Gal(b1-4)GlcNAc(b1-6)GalNAc
# Procedure, shortened: as §1
# [32] = molecular target: Gal(b1-4)GlcNAc(b1-6)[Gal(b1-3)]GalNAc
# Procedure, shortened: as §1
# Gal(b1-6)Gal = molecular target: Gal(b1-6)Gal
# Procedure, shortened: as §1
binder,measurement,setting,value
B1,glycan array binding signal (z-score),Gal(b1-4)Gal,-0.179
same,glycan array binding signal (z-score),[1],-0.251
same,glycan array binding signal (z-score),[2],-0.253
same,glycan array binding signal (z-score),Gal(b1-4)Glc,-0.252
same,glycan array binding signal (z-score),Gal(b1-4)Glc6S,-0.243
same,glycan array binding signal (z-score),Gal(b1-4)GlcNAc,-0.14
same,glycan array binding signal (z-score),[3],-0.124
same,glycan array binding signal (z-score),Gal(b1-4)GlcNAc(b1-2)Man,-0.059
same,glycan array binding signal (z-score),[4],-0.13
same,glycan array binding signal (z-score),[5],-0.254
same,glycan array binding signal (z-score),[6],-0.127
same,glycan array binding signal (z-score),[7],-0.077
same,glycan array binding signal (z-score),[8],-0.159
same,glycan array binding signal (z-score),[9],-0.142
same,glycan array binding signal (z-score),[10],-0.164
same,glycan array binding signal (z-score),[11],-0.178
same,glycan array binding signal (z-score),[12],-0.145
same,glycan array binding signal (z-score),[13],-0.164
same,glycan array binding signal (z-score),[14],-0.122
same,glycan array binding signal (z-score),[15],-0.123
same,glycan array binding signal (z-score),[16],-0.167
same,glycan array binding signal (z-score),[17],-0.146
same,glycan array binding signal (z-score),[18],-0.192
same,glycan array binding signal (z-score),[19],0.012
same,glycan array binding signal (z-score),[20],-0.147
same,glycan array binding signal (z-score),[21],-0.24
same,glycan array binding signal (z-score),[22],-0.247
same,glycan array binding signal (z-score),[23],-0.178
same,glycan array binding signal (z-score),[24],-0.219
same,glycan array binding signal (z-score),[25],-0.208
same,glycan array binding signal (z-score),[26],-0.174
same,glycan array binding signal (z-score),[27],-0.198
same,glycan array binding signal (z-score),[28],1.53
same,glycan array binding signal (z-score),[29],-0.157
same,glycan array binding signal (z-score),[30],-0.312
same,glycan array binding signal (z-score),[31],-0.205
same,glycan array binding signal (z-score),[32],-0.073
same,glycan array binding signal (z-score),Gal(b1-6)Gal,-0.176
